Test results from PubChem BioAssay AID504832 (National Center for Advancing Translational Sciences (NCATS), 2011).
The whole screen tested about 310,000 compounds, of which about 18,000 (5.8%) were called active. The shares of active, inactive and inconclusive entries below differ from those in the screen. The call rests on the fitted dose curve; in most records, active means well fitted inhibition curve with a large enough effect; inconclusive means small, poorly fitted or top-dose-only effect, or another doubt; inactive means no such curve, though single readings can be large or run the other way. No potency is given beside an inconclusive call; the fits are too rough.
On the % scale 0 is the no-effect control and ±100 the full control effect; potency means the concentration at half of the fitted maximal effect; tags describe the fitted curve by direction and shape.

Assay: Primary qHTS for delayed death inhibitors of the malarial parasite plastid, 48 hour incubation
Settings: P. falciparum luciferase growth in erythrocytes; series mostly up to 28.7 µM; activity change, negative = inhibition: at the top concentration
Method in brief: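 Cell-based growth assay: transgenic P. falciparum expressing firefly luciferase, cultured in red cells within RPMI 1640 containing 0.5% w/v Albumax, 24 mM bicarbonate and gentamycin. A drop in luciferase activity indicates inhibition.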
In the case of `Cc1[nH]c2ccc(Br)cc2c(=O)c1CN1CCCCCC1`, the Potency is reported as active: 10.4 µM.
For `CCCCOc1ccccc1C1NC(=O)CCC1[N+](=O)[O-]` (stereo not given), the “activity change, negative = inhibition” value was inactive: -6.95%.
With `CO[C@H]1/C=C/O[C@@]2(C)Oc3c(C)c(O)c4c(O)c(c5c(c4c3C2=O)NC2(CCN(CC(C)C)CC2)N=5)=NC(=O)/C(C)=C\C=C\[C@H](C)[C@H](O)[C@@H](C)[C@@H](O)[C@@H](C)[C@H](OC(C)=O)[C@@H]1C` the Potency was active: 8.49 µM.
In the case of `COc1ccc(NC2CCCN(Cc3cccc4cnccc34)C2)cc1OC` (stereo not given), the Potency is reported as inconclusive [inhibitor, partial curve, poor fit].
With `CCNC(=S)/N=C(/Nc1ccccc1)Nc1nc(C)cc(C)n1` the Potency was inconclusive [inhibitor, single point].
In the case of `CC1Cc2ccccc2N1C(=O)CSc1nnc(-c2ccc(S(=O)(=O)N3CCOCC3)cc2)n1C` (stereo not given), the Potency is reported as inconclusive [inhibitor, single point].
In the case of `O=c1[nH]c(Cc2ccccn2)nc2scc(-c3ccc(Cl)cc3)c12`, the Potency is reported as inconclusive [inhibitor, partial curve].
For `Cc1ccc(NC(=O)CN(c2ccc3c(c2)OCO3)S(=O)(=O)c2c(C)n[nH]c2C)cc1`, the “activity change, negative = inhibition” value was inactive: -9.99%.
In the case of `COc1ccc(CNCc2cc(Cl)ccc2O)cc1`, the Potency is reported as active: 9.28 µM.
With `O=[N+]([O-])c1cccc(N/N=C/c2ccc(N3CCOCC3)cc2)c1` the “activity change, negative = inhibition” value was inactive: 67.1%.
In the case of `CCOC(=O)c1c(C)n(C)c2ccc(OC)c(NC(=O)CN3CCCCC3)c12`, the Potency is reported as inconclusive [inhibitor, partial curve, poor fit].
For `COc1ccc(OCC(=O)Nc2cc(-c3nn(C)c(=O)c4ccccc34)ccc2OC)cc1`, the Potency was inconclusive [inhibitor, single point].
With `CCOc1ccc2nc(SCC(=O)N(CC(C)C)c3c(N)n(Cc4ccccc4)c(=O)[nH]c3=O)[nH]c2c1` the Potency was inconclusive [inhibitor, single point].
With `CN(C(=O)c1cccc(N2C(=O)C3CC=CCC3C2=O)c1)C1CCCCC1` (stereo not given) the Potency was inconclusive [inhibitor, single point].
In the case of `Cc1c(OCC(=O)NCCCN2CCCC2=O)ccc2c3c(c(=O)oc12)CCCC3`, the Potency is reported as inconclusive [inhibitor, single point].
For `CCn1c(SCC(=O)Nc2ccc(OC)c(OC)c2)nnc1-c1cccs1`, the “activity change, negative = inhibition” value was inactive: -24.2%.
For `Cc1cc(NC(=O)CSCC(=O)Nc2cccc(S(=O)(=O)N3CCCCCC3)c2)no1`, the Potency was inconclusive [inhibitor, partial curve, poor fit].
For `O=C1Nc2ccccc2/C1=N\N=C\C1=C(N2CCOCC2)C(=C\c2ccccc2)/CC1`, the Potency was inconclusive [inhibitor, single point].
In the case of `COc1ccc(S(=O)(=O)NCc2cccnc2)cc1NC(=O)c1ccccc1`, the “activity change, negative = inhibition” value is reported as inactive: 2.08%.
With `CCOC(=O)c1sc(=NC(=O)c2cc(OC)c(OC)c(OC)c2)n(C)c1C` the “activity change, negative = inhibition” value was inactive: -6.9%.
With `CC1=NC(Nc2nc(C)c3ccccc3n2)=NC(C)(C)C1` the Potency was inconclusive [inhibitor, single point].
For `Nc1cc(=O)[nH]c(SCC(=O)Nc2cc(S(=O)(=O)N3CCOCC3)ccc2Cl)n1`, the “activity change, negative = inhibition” value was inactive: 0%.
In the case of `Oc1cccc[c]1[Hg][Cl]`, the Potency is reported as active: 1.07 µM.
With `COc1ccc([C@H]2CC(=O)C=C(c3ccc4ccn(C)c4c3)C2)cc1` the Potency was inconclusive [inhibitor, partial curve, poor fit].
For `S=c1[nH]nc(C2CCCCC2)n1/N=C/c1ccccc1Br`, the “activity change, negative = inhibition” value was inactive: 34.4%.
In the case of `C=C(C)C1CC=C(C)/C(=N/NC(=O)COc2ccc(C)cc2)C1` (stereo not given), the “activity change, negative = inhibition” value is reported as inactive: -6.67%.
With `COc1cc(CNC2CCCCC2)c(Br)cc1OC1CCCC1` the Potency was inconclusive [inhibitor, partial curve, poor fit].
With `CCOc1ccc(NC(=S)NC(C)C(c2ccccc2)N2CCN(C)CC2)cc1` (stereo not given) the Potency was inconclusive [inhibitor, partial curve, poor fit].
With `CCOc1cc(C)cc2oc(=O)cc(-c3ccccc3)c12` the “activity change, negative = inhibition” value was inactive: -18.5%.
With `Cn1c(=O)[nH]c(=O)c2c1nc(N1CCNCC1)n2Cc1ccccc1` the Potency was inconclusive [inhibitor, partial curve].
For `COC(=O)c1ccc(NC(=O)CCn2c(=O)oc3ccccc32)cc1`, the “activity change, negative = inhibition” value was inactive: -6.84%.
In the case of `O=C(NC(=S)N1CCc2ccccc21)c1ccc(Br)o1`, the Potency is reported as inconclusive [inhibitor, single point].
For `O=C(Nc1ccc(CN2CCOCC2)cc1)c1ccc(-c2ccc(Br)cc2)o1`, the Potency was active: 1.85 µM.
For `COc1ccc(NC(=S)Nc2ccccn2)c(OC)c1`, the “activity change, negative = inhibition” value was inactive: 71.2%.
With `Cc1ccc(CNC(=O)c2cc(C3CC3)nc3c2cnn3C(C)C)cc1` the Potency was active: 13.1 µM.
For `COCCNC(=S)NCCCNc1nc2cc3c(cc2cc1C#N)OCO3`, the Potency was inconclusive [inhibitor, partial curve].
With `CN1CCN(c2nc3ccccc3nc2C(C#N)C(=O)OC2CCCCC2)CC1` (stereo not given) the Potency was inconclusive [inhibitor, single point].
In the case of `COC(=O)C1=CN(CC2CCCO2)C=C(C(=O)OC)C1c1ccccc1C(F)(F)F` (stereo not given), the Potency is reported as inconclusive [inhibitor, partial curve].
For `CC1=C(C(=O)OC(C)C)C(C)C(C(=O)OC(C)C)=C(C)N1`, the Potency was inconclusive [inhibitor, single point].
For `CCOc1cc(/C=N/NC(=O)OC)ccc1OCCSc1ccc(Cl)cc1`, the Potency was inconclusive [inhibitor, single point].
With `COc1ccccc1C(CNC(=O)c1cccc(NS(=O)(=O)c2ccc(C)c(F)c2)c1)N(C)C` (stereo not given) the Potency was inconclusive [inhibitor, partial curve].
In the case of `O=C(COC(=O)c1ccccc1NCCO)Nc1cc(C(F)(F)F)ccc1N1CCOCC1`, the Potency is reported as inconclusive [inhibitor, partial curve].
With `CCN1C(=O)/C(=C\c2cn(-c3ccccc3)nc2-c2cccnc2)SC1=S` the Potency was active: 11.7 µM.
For `COc1ccc(NCC(=O)N/N=C2\CCc3ccccc32)cc1`, the Potency was inconclusive [inhibitor, partial curve].
With `COc1ccc(N2C(=O)CCC2=O)c(OC)c1` the Potency was inconclusive [inhibitor, single point].
With `Cc1ccc(CNC(=O)CCC2CCCN(Cc3cccc4ncccc34)C2)o1` (stereo not given) the Potency was inconclusive [inhibitor, partial curve, poor fit].
With `COc1ccc(C)cc1N(CC(=O)NC1CCCC1)C(=O)CCC(=O)Nc1nc(C)cs1` the Potency was inconclusive [inhibitor, single point].
For `COc1ccc(C(=O)NC2CC2)cc1OC1CCN(Cc2ccc(SC)cc2)CC1`, the Potency was inconclusive [inhibitor, single point].
With `CC1=NNC(=O)C1CCC(=O)N/N=C/C(Br)=C/c1ccccc1` (stereo not given) the “activity change, negative = inhibition” value was inactive: -16.8%.
With `Cc1ncc(CO)c(CNc2ccc(Oc3ccccc3)cc2)c1O` the Potency was inconclusive [inhibitor, single point].
With `CCN(CC)c1nc(N2CCOCC2)c(C#N)c2c1CN(C)CC2` the Potency was inconclusive [inhibitor, single point].
In the case of `N#Cc1cnn(Cc2ccc(Cl)cc2)c1N`, the “activity change, negative = inhibition” value is reported as inactive: 10.1%.
In the case of `COc1ccc(C(C(=O)NC(C)(C)C)N(C(=O)CCC(=O)Nc2cc(C)on2)c2ccc(C)c(C)c2)cc1` (stereo not given), the Potency is reported as inconclusive [inhibitor, partial curve].
For `COc1ccc(N2CCN(C(=O)COc3ncnc4ccccc34)CC2)cc1`, the “activity change, negative = inhibition” value was inactive: 18.6%.
With `O=C1c2ccccc2C(O)(Cc2ccccc2)N1c1ccc2c(c1)OCO2` (stereo not given) the Potency was inconclusive [inhibitor, partial curve].
For `CCC(CC)COC(=O)C(C#N)c1nc2ccccc2nc1N1CCOCC1` (stereo not given), the Potency was inconclusive [inhibitor, single point].
In the case of `CN(CC(=O)Nc1ccc(F)c(Cl)c1)S(=O)(=O)c1cccc2nsnc12`, the Potency is reported as inconclusive [inhibitor, full curve].
In the case of `CS(=O)(=O)N1CCC(C(=O)Nc2cc(Cl)ccc2Cl)CC1`, the “activity change, negative = inhibition” value is reported as inactive: -81.9%.
With `Cc1ccc(N2C(=O)C3C4C=CC(CC4)C3C2=O)cc1Cl` (stereo not given) the Potency was inconclusive [inhibitor, full curve, poor fit].
With `O=C(Nc1ccc(Cl)cc1)N(Cc1nc2ccccc2c(=O)[nH]1)Cc1cccs1` the Potency was active: 14.7 µM.
With `CCN(c1ccc(C(=O)CN2C(=O)NC3(CCOc4ccccc43)C2=O)cc1)S(C)(=O)=O` (stereo not given) the Potency was inconclusive [inhibitor, single point].
In the case of `CCN(CC)CCN1C(=O)c2ccccc2NC1c1cccc(F)c1` (stereo not given), the Potency is reported as inconclusive [inhibitor, single point].
In the case of `COc1cc(=O)n(C)c2c(OCC3OC(C)(C)OC3(C)C)cccc12` (stereo not given), the Potency is reported as inconclusive [inhibitor, partial curve, poor fit].
With `CCn1c(/C=C/N(C)c2ccccc2)[n+](CC)c2ccc(Cl)cc21` the Potency was active: 0.738 µM.
With `CCOc1ccc(CN2CCN(Cc3cccc4nonc34)CC2CCO)cc1` (stereo not given) the “activity change, negative = inhibition” value was inactive: 17.5%.
In the case of `Cc1cccc(-c2noc(CCCOc3ccc(Cl)cc3Cl)n2)c1`, the “activity change, negative = inhibition” value is reported as inactive: 19.1%.
With `N/C(=N\OC(=O)CCC1CCCC1)c1ccc([N+](=O)[O-])cc1` the activity change, negative = inhibition was inactive: 45% [at 5.75 µM].
In the case of `CC(C)c1ccc(NC(=O)CCC(=O)NCc2ccco2)cc1`, the “activity change, negative = inhibition” value is reported as inactive: 4.62%.
For `CCOC(=O)C1CCN(C(=O)c2oc3ccc(S(=O)(=O)N4CC(C)CC(C)C4)cc3c2C)CC1` (stereo not given), the Potency was active: 2.33 µM.
In the case of `CC1CCCN(C(=O)c2ccc3c(=O)n(Cc4ccc5c(c4)OCO5)c(=S)[nH]c3c2)C1` (stereo not given), the “activity change, negative = inhibition” value is reported as inactive: -28.5%.
